Some of the results follow. Each Rep nickase domain was tested in vitro on the same pool of single strands (3 µM enzyme, 1 h, 37 °C); shown is the middle of each 90-letter strand. Values are log2 of uncut reads against the no-enzyme pool; strong cutting gives strongly negative numbers. There is no active / inactive call. Counts are relative to all reads; where an enzyme cuts many sequences, the uncut ones exceed 0.
Columns and labels:
Assay in all cases: uncleaved DNA left, log2 of reads against the no-enzyme library (log2 ratio); higher = less cleavage (more negative = more Rep cleavage of the k-mer); sequences stand for … in CTCGTCCG…ACCGGAGA
[1] = tested on: T1, Rep nickase domain of Muscovy duck circovirus
T1 sequence (residues 1-111 of Rep, tag left off): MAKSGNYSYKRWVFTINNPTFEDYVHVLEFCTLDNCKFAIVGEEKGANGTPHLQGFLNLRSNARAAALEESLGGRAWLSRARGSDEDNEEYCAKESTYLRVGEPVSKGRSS
Description: (§1)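 A pool of 90-nt single-stranded DNAs with seven random bases just before the constant AC of the nick site (name = the seven bases) was cut by 3 µM recombinant His6-SUMO-tagged Rep nickase domain (300 nM DNA, 50 mM HEPES pH 8.0, 50 mM NaCl, 1 mM MnCl2, 1 h, 37 °C, three replicates). Uncut DNA was amplified and sequenced.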

[2] = tested on: T2, Rep nickase domain of banana bunchy top virus
T2 sequence (residues 1-94 of Rep, tag left off): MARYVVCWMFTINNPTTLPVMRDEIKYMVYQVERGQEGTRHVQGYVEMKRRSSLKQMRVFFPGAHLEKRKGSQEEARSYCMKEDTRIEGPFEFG
Description: as §1

[3] = tested on: T3, Rep nickase domain of cabbage leaf curl virus
T3 sequence (residues 1-116 of Rep, tag left off): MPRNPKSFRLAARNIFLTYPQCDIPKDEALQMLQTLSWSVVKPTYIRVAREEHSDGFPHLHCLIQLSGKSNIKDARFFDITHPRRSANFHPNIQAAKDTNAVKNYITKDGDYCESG
Description: as §1

[4] = tested on: T4, Rep nickase domain of chickpea chlorotic dwarf virus
T4 sequence (residues 1-124 of Rep, tag left off): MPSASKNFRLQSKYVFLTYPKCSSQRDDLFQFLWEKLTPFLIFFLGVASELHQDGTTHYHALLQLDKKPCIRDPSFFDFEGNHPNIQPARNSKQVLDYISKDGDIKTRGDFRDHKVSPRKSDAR
Description: as §1

[5] = tested on: T5, Rep nickase domain of faba bean necrotic yellows virus
T5 sequence (residues 1-98 of Rep, tag left off): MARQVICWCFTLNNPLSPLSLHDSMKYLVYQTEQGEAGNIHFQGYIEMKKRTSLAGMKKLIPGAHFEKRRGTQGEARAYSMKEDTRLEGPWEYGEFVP
Description: as §1

[6] = tested on: T6, Rep nickase domain of maize striate mosaic virus
T6 sequence (residues 1-117 of Rep, tag left off): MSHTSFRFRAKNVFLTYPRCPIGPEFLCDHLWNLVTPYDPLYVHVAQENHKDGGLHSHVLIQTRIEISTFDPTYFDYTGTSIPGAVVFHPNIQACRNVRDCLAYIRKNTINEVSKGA
Description: as §1

[7] = tested on: T7, Rep nickase domain of porcine circovirus 2
T7 sequence (residues 2-116 of Rep, tag left off): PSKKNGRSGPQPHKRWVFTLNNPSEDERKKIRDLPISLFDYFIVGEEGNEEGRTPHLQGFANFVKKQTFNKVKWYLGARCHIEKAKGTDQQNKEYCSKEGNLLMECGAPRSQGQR
Description: as §1

[8] = tested on: T8, Rep nickase domain of tomato golden mosaic virus
T8 sequence (residues 1-124 of Rep, tag left off): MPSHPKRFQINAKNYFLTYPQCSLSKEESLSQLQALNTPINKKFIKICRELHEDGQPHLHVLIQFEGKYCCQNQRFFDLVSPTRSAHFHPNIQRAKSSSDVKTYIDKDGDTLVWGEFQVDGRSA
Description: as §1

[9] = tested on: T9, Rep nickase domain of tomato yellow leaf curl virus
T9 sequence (residues 1-136 of Rep, tag left off): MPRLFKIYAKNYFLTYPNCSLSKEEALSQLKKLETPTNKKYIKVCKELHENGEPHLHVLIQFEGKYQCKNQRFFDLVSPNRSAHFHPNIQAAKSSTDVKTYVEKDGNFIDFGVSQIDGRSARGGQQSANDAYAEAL
Description: as §1

[10] = tested on: T10, Rep nickase domain of wheat dwarf virus
T10 sequence (residues 1-137 of Rep, tag left off): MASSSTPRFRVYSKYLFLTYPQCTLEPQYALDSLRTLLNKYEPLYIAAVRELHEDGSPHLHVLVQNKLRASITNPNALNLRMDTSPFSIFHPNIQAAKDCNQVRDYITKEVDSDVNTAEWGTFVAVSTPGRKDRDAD
Description: as §1

Sequence	uncleaved DNA left (log2) [1]	uncleaved DNA left (log2) [2]	uncleaved DNA left (log2) [3]	uncleaved DNA left (log2) [4]	uncleaved DNA left (log2) [5]	uncleaved DNA left (log2) [6]	uncleaved DNA left (log2) [7]	uncleaved DNA left (log2) [8]	uncleaved DNA left (log2) [9]	uncleaved DNA left (log2) [10]
GGTCCAT	0.0899	0.0668	0.819	2.04	0.00348	2.23	0.181	0.0397	0.0181	0.197
CAGAATC	0.087	0.102	0.0475	-0.178	-0.0274	-0.334	-0.0829	0.0492	-0.0458	-0.042
AACGGTA	0.0407	-0.0453	0.151	0.426	0.0326	0.993	-0.052	-0.0295	-0.101	-0.0528
TCCGCTG	-0.132	-0.0438	0.158	0.714	-0.0971	1.18	0.0115	-0.124	-0.344	-0.0859
TCGCCAT	0.129	0.131	0.104	-0.0747	-0.0441	-0.116	-0.0866	-0.0354	-0.0199	0.129
ATGTCGC	0.104	0.0646	-0.633	-0.439	0.125	-0.913	0.131	-0.115	0.147	-0.0333
ACTACGA	-0.011	-0.161	-0.157	-0.496	-0.0309	-1.01	0.135	0.0106	-0.126	-0.142
CTTAGGA	0.141	0.15	0.162	0.541	0.151	-0.23	0.29	0.296	0.103	0.228
CAGACGA	0.141	0.0959	0.00906	0.211	0.0939	-0.568	0.161	0.123	0.0659	-0.0159
GGTTATC	0.199	0.271	0.577	1.21	0.163	1.87	0.124	0.0986	0.225	0.323
TGCATTA	-0.0947	0.0462	-0.107	-0.464	0.0319	-0.506	-0.11	0.000804	0.0267	0.0383
TATGGGT	0.11	-0.0441	0.183	0.949	0.0353	1.35	0.141	0.105	0.0124	0.00169
CTCTTCT	-1.41	-0.201	-0.176	-2.42	-0.202	-0.939	-3.23	-0.108	-0.0463	-0.113
ACCCAAA	0.0222	0.129	0.0781	-0.0806	0.0478	-0.745	0.094	0.165	-0.0156	0.0993
AGTGATC	0.0376	-0.0299	0.0292	0.581	0.0345	0.915	0.0675	0.0318	-0.164	-0.0552
GACGAAA	-0.089	-0.188	0.0938	0.394	-0.0739	0.299	-0.0352	-0.157	-0.164	-0.129
GATGCCG	0.0763	0.0179	-0.765	-0.351	0.0208	-0.913	0.191	-0.0577	-0.108	-0.00787
GTCCCTA	-0.133	0.0619	0.256	0.772	-0.0113	1.67	0.0358	0.137	0.0874	0.0773
ATGGACC	0.00841	-0.0445	0.134	0.747	-0.101	0.664	0.0128	-0.105	0.00102	0.0207
GTGATAC	-0.143	-0.0272	0.0889	0.711	-0.163	1.73	-0.088	-0.0194	-0.0264	-0.00385

Sequence	uncleaved DNA left (log2) [1]	uncleaved DNA left (log2) [2]	uncleaved DNA left (log2) [3]	uncleaved DNA left (log2) [4]	uncleaved DNA left (log2) [5]	uncleaved DNA left (log2) [6]	uncleaved DNA left (log2) [7]	uncleaved DNA left (log2) [8]	uncleaved DNA left (log2) [9]	uncleaved DNA left (log2) [10]
TTTTATG	0.11	0.02	-0.362	-0.578	0.0374	-1.02	0.211	0.0303	0.0625	0.0238
ATACCCG	0.052	-0.0488	-0.76	-0.545	0.00696	-1.1	-0.36	-0.0605	-0.0669	-0.135
CCGACCA	-0.0368	0.0701	0.039	-0.333	-0.0682	-0.266	-0.197	-0.0307	-0.0678	-0.0528
GTCCGCA	-0.0286	0.011	0.294	0.67	0.0511	1.02	0.0559	0.108	-0.0245	-0.011
ATGATGC	0.1	0.0821	-0.423	-0.39	0.0275	-1.08	0.24	0.122	0.137	0.0868
CCACACA	-0.0181	0.0145	-0.12	-1.8	-0.0302	-0.599	-0.0517	-0.0604	0.0432	-0.0469
ATGTATT	-3.74	-3.27	-0.596	-2.86	-3.34	-0.352	-3.34	-0.148	0.174	-0.469
GGAATTT	-0.0556	0.069	0.55	1.19	-0.065	2.01	0.156	-0.0845	0.0583	0.0952
GCTGGTT	-0.0455	-0.0439	0.118	0.101	-0.0498	0.959	0.0657	0.192	-0.107	0.00338
TGTACAA	0.129	0.0146	0.244	0.393	-0.0564	0.587	0.075	-0.014	0.118	0.134
AATACTG	-0.0162	0.0283	0.0626	0.695	0.0229	1.3	0.101	0.114	-0.0864	-0.0268
CATGACA	0.0659	0.0581	-0.0304	-2	-0.0361	-0.343	0.0203	0.0347	0.0872	0.113
CTCGCCC	-0.142	-0.165	-0.066	-0.283	-0.0699	-0.369	-0.339	-0.0404	-0.284	-0.26
ATACTCT	-0.0138	-0.167	-0.334	-2.61	-0.103	-0.835	-0.36	-0.131	0.0016	-0.164
CGTACAA	-0.000157	0.0421	0.0551	-0.148	-0.0482	-0.0791	-0.0804	0.075	-0.0166	0.0634
TTATTGA	-0.00233	-0.0197	-0.174	-0.345	0.00245	-1.05	0.00887	-0.0017	0.0686	-0.0606
AACCCAC	-0.0543	-0.115	0.117	-0.14	-0.0717	-0.288	-0.421	-0.198	-0.107	0.0018
AGTTACA	0.117	-0.028	-0.0101	-1.88	0.0956	0.145	-0.341	0.0249	0.154	0.131
ATTTTAT	-0.781	-0.372	-0.00893	-1.14	0.069	-0.693	-1.82	-0.0442	0.00298	-0.117
GGTTCTG	-0.0752	-0.0301	0.0445	0.582	-0.118	1.11	-0.0128	-0.123	0.0139	0.0997

Sequence	uncleaved DNA left (log2) [1]	uncleaved DNA left (log2) [2]	uncleaved DNA left (log2) [3]	uncleaved DNA left (log2) [4]	uncleaved DNA left (log2) [5]	uncleaved DNA left (log2) [6]	uncleaved DNA left (log2) [7]	uncleaved DNA left (log2) [8]	uncleaved DNA left (log2) [9]	uncleaved DNA left (log2) [10]
CAACCAG	-0.154	-0.0764	-0.826	-1.15	-0.0219	-1.24	-0.793	-0.157	-0.0959	-0.204
CATCGAG	0.0107	0.0306	-0.237	-0.0649	-0.0629	-0.966	0.0191	-0.156	-0.0188	-0.0633
GCCTGTG	0.123	0.0183	-0.581	-0.262	0.0741	-0.72	0.226	-0.00492	0.12	-0.0346
ACACTAT	-0.0288	0.0471	-0.141	-1.41	-0.000309	-0.862	-0.0202	0.11	-0.0742	-0.0434
GGGCTCG	0.221	0.127	0.544	1.14	0.0229	1.26	0.241	0.0793	0.0496	0.189
CTCAAGG	0.117	0.0487	0.531	1.4	0.0893	1.38	0.111	0.137	0.00192	0.121
ATAAGCG	0.00576	0.00179	-0.573	0.898	0.00303	-0.32	0.121	-0.0489	0.0199	-0.035
ATGCCGC	0.0545	0.0811	-0.494	-0.481	0.0427	-0.732	0.122	-0.0843	-0.0111	-0.0402
CTCTATC	-0.104	-0.056	-0.0204	-0.246	-0.338	-0.878	-0.136	-0.237	-0.0585	-0.0838
TACGCTC	-0.0651	-0.0965	-0.278	-1.28	0.0211	-0.664	-0.085	-0.233	-0.0752	-0.0583
TAGGTCT	0.0286	-0.0738	-0.392	-2.48	-0.0874	0.834	-2.93	-0.0603	-0.0384	-0.0651
GCTTCAC	-0.0336	0.143	0.219	0.572	-0.00866	0.234	0.179	-0.0137	0.084	0.113
GTGGTTG	0.0859	0.0113	0.215	0.567	-0.0435	0.755	0.13	-0.0223	0.0366	0.0372
TGCCACT	0.0977	0.0462	0.0977	-1.21	-0.0268	0.163	-0.139	-0.0106	-0.0666	0.0358
ACAGCTT	-0.0231	-0.131	-0.415	-2.19	-0.0996	-0.792	-0.0429	-0.0193	-0.119	-0.0208
GTATGTC	-0.0701	0.0512	0.295	0.722	0.0411	1.28	0.0855	-0.0299	0.0136	0.091
AGTACCG	-0.111	0.0099	-0.74	-0.774	-0.0624	-0.966	0.0411	-0.0628	-0.047	-0.104
TCATTAA	0.0541	-0.0199	-0.0643	-0.298	-0.0862	-0.742	-0.0101	0.0804	0.0525	-0.0791

— the supplement of paper PMC7826260
